# Test results: PubChem BioAssay AID652104 (National Center for Advancing Translational Sciences (NCATS), 2013)
# In all, about 410,000 compounds went through this assay and about 7,200 (1.8%) were called active. Inconclusive means that the source gave no clear call. Such entries were picked first, then a sample of the others. Calls follow the shape of the dose curve; as a rule, active = well fitted activation curve with a large enough effect; inconclusive = small, poorly fitted or top-dose-only effect, or another doubt; inactive = no such curve, though single readings can be large or run the other way. Potencies of inconclusive entries are left out as doubtful fits.
# Assay: qHTS of TDP-43 Inhibitors; also: nearly all actives have a fitted effect of over 50% in size; as to growth rescue (activation): % of control where 0% means no effect
# Settings: TDP-43 expressing yeast growth rescue, BacTiter-Glo, 24 h; growth rescue (activation): at 46.1 µM (top of the series) unless noted
# Method in brief: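 Luminescence from BacTiter-Glo reports growth of TDP-43-expressing yeast after 24 hr at 30 deg C with compound. Cells were raffinose-pregrown to mid-log, then seeded in galactose medium at OD600=0.02.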
# Potency is read from the fitted curve at half-maximal effect; tags tell the direction and shape of the fitted curve.
SMILES,Potency,growth rescue (activation)
CCO[C@@H]1OC(C(=O)O)=C[C@H](c2ccc3c(c2)OCO3)[C@H]1CCCO,"inconclusive [activator, partial curve]",–
CCn1cc2nc(SCC(=O)Nc3ccc(C)cc3C)n(Cc3ccc(C)cc3)c(=O)c2n1,"inconclusive [activator, single point]",–
COc1nc(-c2ccccc2)cc(-c2ccccc2)n1,"inconclusive [activator, partial curve]",–
Cc1cccc(C)c1NC1=NC(=S)N(c2ccc(C(=O)O)cc2)C12CCCCC2,"inconclusive [activator, single point]",–
Cc1cc(NC(=O)c2cccs2)cc(-c2nc3cc(Cl)ccc3o2)c1O,inactive,–
Cc1ccccc1C#CC1=CC(=O)CC(C)(C)C1,"inconclusive [activator, full curve]",–
CCCc1ccc(C2Sc3ccccc3NC3=C2C(=O)c2ccccc23)cc1 (configuration not stated),inactive,–
O=C(CSc1n[nH]c(-c2ccccc2Cl)n1)N1CCN(c2ccccc2)CC1,"inconclusive [activator, single point]",–
Clc1cccc(-c2nc(NCC3CCCO3)c3ccccc3n2)c1 (configuration not stated),active: 12.6 µM,–
CCS(=O)(=O)N1CCC(n2c(C(F)(F)F)nc3cccnc32)CC1,inactive,–
CC(C)COC(=O)NCCOC(=O)Nc1cccc(Cl)c1,active: 25.1 µM,–
CC12CC3CC(C)(C1)CC(Nc1nc(N4CCOCC4)nc4ccccc14)(C3)C2,active: 20 µM,–
CCOC(=O)NNC(=O)c1[nH]c2ccc(Br)cc2c1-c1ccccc1,"inconclusive [activator, partial curve, poor fit]",–
COc1ccc(-c2nnc(SCC(=O)NCc3ccc(C)cc3)nc2-c2ccc(OC)c(OC)c2)cc1OC,"inconclusive [activator, partial curve, poor fit]",–
COc1cc(NC(=O)CN(C)S(=O)(=O)c2ccc(C)cc2)cc(OC)c1,"inconclusive [activator, single point]",–
Cc1cc(OCC(=O)Nc2ccccc2C(N)=O)c2c(C)cc(=O)oc2c1,"inconclusive [activator, full curve, poor fit]",–
Cc1cc(/C=C2/NC(=O)N(Cc3ccccc3F)C2=O)c(C)n1-c1ccccn1,inactive,–
N#Cc1cnc(Sc2ccccc2)nc1,"inconclusive [activator, partial curve]",–
COc1ccc(/C=C2\C(=O)ON=C2c2ccccc2)cc1,–,inconclusive: 60.7% [activator]
CSc1ccccc1NC(=O)CSc1nnnn1-c1ccccc1SC,"inconclusive [activator, partial curve]",–
N#C/C(=C\c1ccc([N+](=O)[O-])cc1)c1ccccn1,active: 12.6 µM,–
CSc1ccc(Cl)c(C(=O)NCc2ccco2)c1,"inconclusive [activator, full curve]",–
O=C(NCCc1ccccc1)c1c(F)c(F)c(F)c(F)c1F,"inconclusive [activator, full curve]",–
O=C(c1ccccc1)N(C(=O)c1ccccc1)c1ccccc1,active: 4.47 µM,–

SMILES,Potency,growth rescue (activation)
O=C(CSc1ccc(-c2ccc(Cl)cc2)nn1)N1CCCc2ccccc21,active: 20 µM,–
COc1ccc(CCNC(=O)c2ccc3c(c2)N(Cc2ccccc2F)C(=O)c2ccccc2S3(=O)=O)cc1OC,inactive,–
CCOC(=O)/C=C/C(=O)Nc1ccc(Oc2ccccc2)cc1,active: 17.8 µM,–
O=C(CCN1N=C(c2ccccc2)CCC1=O)NCCc1ccc(Cl)cc1,"inconclusive [activator, single point]",–
COc1ccc(C2C(=O)N(C3CCCCCC3)CC(=O)N2Cc2ccc(C)cc2)cc1OC (configuration not stated),inactive,–
Fc1ccc(CN2CCc3nc(Nc4ccccc4)ncc3C2)cc1F,"inconclusive [activator, partial curve]",–
CCN(CC)c1nc2c(c(=O)n(C)c(=O)n2C)n1CCCc1ccccc1,"inconclusive [activator, single point]",–
COc1ccc([C@H]2CC(=O)C=C(c3ccc4c(c3)OCO4)C2)cc1,"inconclusive [activator, partial curve]",–
Oc1c(-c2cc(-c3ccco3)[nH]n2)ccc2ccccc12,active: 10 µM,–
Clc1ccccc1-c1nnc2sc(-c3ccc(Br)o3)nn12,"inconclusive [activator, full curve, poor fit]",–
C[C@@H](NC(=O)c1[nH]cnc1C(=O)Nc1cccc(Cl)c1)c1ccccc1,"inconclusive [activator, partial curve]",–
COc1cc(OC)cc(C(=O)O/N=C(\N)c2cccc(C)c2)c1,–,inconclusive: -61.4% [activator]
COc1ccc(S(=O)(=O)N2CCC(Oc3ccc(-n4cnnn4)cc3)CC2)cc1OC,inactive,–
COC(=O)c1ccc(OC)cc1OCC(=O)N1CCN(c2ccc(F)cc2)CC1,"inconclusive [activator, partial curve]",–
CCOc1cccc(CC(=O)N2CCc3c([nH]c4ccccc34)C2c2ccc(Cl)cc2)c1OCC (configuration not stated),inactive,–
CC1CCc2nc(/C(C#N)=C/c3ccncc3)sc2C1 (configuration not stated),"inconclusive [activator, single point]",–
COc1ccc(NC(=S)NNC(=O)c2cccs2)cc1,"inconclusive [activator, partial curve]",–
CC1CCN(C(=O)CSc2nc(-c3ccccc3)no2)CC1,"inconclusive [activator, single point]",–
COc1cc(C(=O)N2CCC(c3nc4ccccc4o3)CC2)cc(OC)c1OC,inactive,–
Cc1cccc(N2CCN(c3ncnc4c3nc3n4CCCCC3)CC2)c1C,active: 22.4 µM,–
C=CCN1C(=O)C(=O)N(CC(=O)c2ccc3c(c2)CCCC3)C1=O,"inconclusive [activator, partial curve, poor fit]",–
CCOC(=O)c1ccc(NC(=O)c2c(-c3c(F)cccc3Cl)noc2C)cc1,"inconclusive [activator, partial curve]",–
COC(=O)c1ccccc1NC(=O)c1ccc(COc2ccccc2Cl)o1,inactive,–
N#C[C@]1(S(=O)(=O)c2ccccc2)C[C@@H]2ON=C(c3cccc(Br)c3)[C@@H]2C1,"inconclusive [activator, partial curve]",–

SMILES,Potency,growth rescue (activation)
CC(C)n1c(=O)c2ccccc2n1C(=O)c1ccccc1,"inconclusive [activator, single point]",–
COc1ccccc1CNC(=O)C1CCCN(c2nc3ccccc3n3cccc23)C1 (configuration not stated),inactive,–
CCOc1cc(/C=C2\C(=O)ON=C2c2ccccc2)ccc1OC,active: 12.6 µM,–
COC(=O)/C(C#N)=C/c1c(N2CCN(c3ccccc3)CC2)nc2ccccn2c1=O,"inconclusive [activator, single point]",–
Cc1ccc(C(=O)/C=C/C(=O)c2ccc(C)cc2)cc1,"inconclusive [activator, single point]",–
COc1ccc(S(=O)(=O)N2CCOCC2)cc1NC(=O)Cc1ccsc1,inactive,–
CCC1CCCCN1C(=O)Cn1c(=O)n(CCCCCC(=O)NCc2ccccc2)c(=O)c2sccc21 (configuration not stated),inactive,–
S=c1[nH]nc(-c2cccc(Cl)c2)n1/N=C/c1ccc(-c2ccccc2Br)o1,"inconclusive [activator, full curve]",–
O=C(/C=C/c1ccc(F)cc1)N1CCCc2ccccc21,active: 17.8 µM,–
O=C1CCCCC1Nc1ccc(Br)cc1 (configuration not stated),"inconclusive [activator, partial curve]",–
COc1cc([N+](=O)[O-])cc(/C=N/NC(=O)c2cccnc2)c1O,"inconclusive [activator, partial curve]",–
c1ccc2oc(SCc3nc4ccccc4s3)nc2c1,"inconclusive [activator, partial curve]",–
CN(C)CCOC1c2ccccc2C=Cc2ccccc21,"inconclusive [activator, partial curve]",–
COc1ccc(SCc2cc(=O)c3cc(Cl)ccc3[nH]2)cc1,inactive,–
O=C(Cc1ccc(Cl)cc1)Nc1ccc2nn(-c3ccc(Cl)cc3)nc2c1,inactive,–
Cc1cccc(C)c1OCCn1c(C2CC(=O)N(c3cccc(Cl)c3)C2)nc2ccccc21 (configuration not stated),inactive,–
COc1cc(OC)cc(C(=O)NCC(=O)OCC(=O)c2ccc3c(c2)-c2ccccc2C3)c1,"inconclusive [activator, single point]",–
Cc1nc(NC(=O)C23CCC(C)(C(=O)O2)C3(C)C)sc1C (configuration not stated),"inconclusive [activator, single point]",–
Cc1ccccc1NC(=O)Nc1nc(C(N)c2ccccc2)cs1 (configuration not stated),"inconclusive [activator, full curve, poor fit]",–
Cc1nc(SCc2ccccc2C)n[nH]1,"inconclusive [activator, single point]",–
O=C(NCc1ccc2c(c1)CCN2C(=O)c1ccc(F)cc1)c1cc2ccccc2[nH]1,active: 31.6 µM,–
Cc1oc2ncnc(N3CCCCC3)c2c1C(=O)N1CCN(c2cccc(C(F)(F)F)c2)CC1,active: 22.4 µM,–
Cc1ccc(Nc2c(-c3cccs3)nc3nc(C)cc(C)n23)cc1,"inconclusive [activator, single point]",–
O=C(Cn1c(=O)sc2ccccc21)OC(CCl)CCl,"inconclusive [activator, single point]",–
